Data taken from PubChem BioAssay AID1508623 (National Center for Advancing Translational Sciences (NCATS), 2021).
The whole screen tested about 48,000 compounds, of which about 450 (0.94%) were called active. Another 19% or so got no clear call; they are omitted. Calls follow the shape of the dose curve; as a rule, active = well fitted inhibition curve with a large enough effect; inconclusive = small, poorly fitted or top-dose-only effect; inactive = no such curve, though single readings can be large or run the other way. The list shows a part of the results.

test: Primary qHTS for Identification of Small Molecule Inhibitors of Huntingtin Promoter Activity; settings: HEK293 HTT promoter firefly luciferase reporter (activity 0% = vehicle and -100% = no light), 24 h; series mostly up to 57.5 µM; activity change, negative = inhibition: at the top concentration; also: nearly all actives have a fitted effect of over 50% in size
Outline: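 Quantitative HTS used concentration series of up to 57.5 uM final on HEK293 luciferase reporter cells, 24 h at 37 degrees C. Readout was Dual-Glo firefly luminescence.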

Activity change, negative = inhibition, inactive:
CCOc1ccc(CNC(=O)c2ccc3c(c2)sc2nc(-c4ccccc4)cn23)cc1 28.7%
Cc1ccc(-c2noc(CNC(=O)COc3cc(C)c(Br)c(C)c3)n2)cc1 -1.15%
CCOCCc1nnc(NC(=O)C(=O)c2cc(C)n(-c3cccc(C)c3)c2C)s1 -26.8%
O=C(NC1CCCCC1)c1ccc2c(c1)N(Cc1cccc(F)c1)C(=O)c1ccccc1S2 -11.1%
O=C(NC1CCCCC1)c1ccc2c(c1)sc1nc(-c3ccc(F)cc3)cn12 -10.5%
Cc1ccc(-n2nc(C(=O)N3CCN(c4ccc(F)cc4)CC3)c(=O)n(C)c2=O)cc1 -14.7%
COc1ccc2nc(NC(=O)c3nc(S(=O)(=O)Cc4ccccc4F)ncc3Cl)sc2c1 7.5%
COc1ccc(NCc2cc3cc4c(cc3n(CC(=O)Nc3cccc(F)c3)c2=O)OCO4)cc1 -23.6%
O=C(Cn1c(=O)n(-c2ccccc2)c(=O)c2ccc(C(=O)NCc3ccc4c(c3)OCO4)cc21)Nc1ccc(F)cc1 -26.5%
COc1cc(OC)c(NC(=O)Cn2c(=O)c(C(F)(F)F)nc3ccccc32)cc1Cl -26%
CCc1cccc(NC(=O)Cn2c(=O)n(-c3ccccc3C)c(=O)c3c2c2cc(C)ccc2n3C)c1 -35.2%
CCCCc1nn2c(=O)cc(COC(=O)c3cccc(NC(=O)c4cccc(Cl)c4)c3)nc2s1 7.25%
Cc1ccc(CNC(=O)c2ccc(CS(=O)(=O)Cc3ccc(F)cc3)o2)cc1 -8.38%
COc1ccc(CCCc2nnc(SCC(=O)Nc3cccc(C)c3)o2)cc1C 9.05% [at 11.5 µM]
CCCCN(C)CCCNC(=O)Cn1ncc2c3ccccc3n(Cc3cccc(Cl)c3)c2c1=O -17.8%
Cc1cccc(N2CCN(S(=O)(=O)c3cn(C)c(C)n3)CC2)c1C -18.2%
Cc1cc(C(=O)NOCCO)c(Nc2ccc(I)cc2F)n(C)c1=O -12%
COCCNc1ccc(-c2nc(-c3ccncc3)no2)cc1[N+](=O)[O-] 30%
COc1cc(NC(=O)CSc2nc(-c3cccs3)cc(C(F)(F)F)n2)cc(OC)c1OC 2.5%
COc1cccc(-n2c(SCC(=O)N3CCc4ccccc43)nc3c([nH]c4ccccc43)c2=O)c1 -4.5%
O=C(Nc1ccc(F)cc1F)c1cccc2c1C(=O)N(C1CCCCC1)C2 -10.7%
Cc1cccc(CSc2nc3c(c(=O)[nH]2)CCC3)c1 -13.6%
CNC(=O)c1ccc2nc(CCc3ccccc3)oc2c1 46.7%
COc1ccc(S(=O)(=O)NCc2cccn2Cc2cccc(C)c2)cc1Cl 0%
COc1ccc(-c2cc(C(F)(F)F)nc(SCC(=O)N3CCCCC3)n2)cc1OC -17.2%
COc1ccc(OC)c(S(=O)(=O)N2Cc3ccccc3CC2C(=O)Nc2ccc(C)cc2C)c1 (stereo not given) -27.4%
CCS(=O)(=O)N1CCc2cc(C(=O)N3CCN(c4ccc(OC)cc4)CC3)ccc21 -10.8%
CCc1cccc(C)c1NC(=O)C(CC)n1nc(C)c2c(C)n(-c3ccccc3)nc2c1=O (stereo not given) -27.7%
COc1ccc(-c2nc(SCC(=O)Nc3ccccc3)c(-c3ccc(F)cc3)[nH]2)cc1OC -26.2%
COC(=O)c1sccc1S(=O)(=O)N(CC(=O)NCc1ccccc1)c1ccc(C)c(C)c1 -3.19%
Cn1nnnc1SCCNCc1ccc(OCc2ccccc2)cc1 1.86%
COc1ccc(NC(=O)CSc2nnc3scc(-c4ccc(Cl)cc4)n23)cc1 -15.1%
CCOC(=O)c1c(C)c(-c2ccccc2)n(CC(=O)Nc2cccc(F)c2)c1C 1.05%
CCOc1ccc(NC(=O)CCS(=O)(=O)c2ccc(Br)s2)cc1 -13.6%
Cc1cccc(NC(=O)CN2C(=O)COc3ccc(S(=O)(=O)N4CCC(C)CC4)cc32)c1C -13.2%
CCN(CC)CCCNC(=O)c1nn(-c2ccc(OC)c(Cl)c2)c(=O)c2c1c1ccccc1n2C -0.969%
Cc1ccc(CNC(=O)Cn2c(=O)n(-c3ccc(C)c(F)c3)c(=O)c3sc4ccccc4c32)cc1 -13.8%
O=C(Nc1noc2ccccc12)c1c(F)cccc1F 23.6%
O=C(Nc1cc(F)ccc1F)c1ccc2c(c1)nnn2C1CCCC1 20%
CCOc1ccc(-c2nc3c(C#N)c[nH]n3c2NC2CCCCC2)cc1 -4.2%
CC1(C)CO[C@@H](CC(=O)O)CN1 12.1%
CCOC(=O)C1CCN(C(=O)C2CCN(c3nnc(C)c4c(C)n(-c5ccccc5)nc34)CC2)CC1 13.6%
CCCC(=O)Nc1cc(C(=O)NCc2ccc(OC)cc2)ccc1S(=O)(=O)c1ccc(Cl)cc1 18.1%
Cc1nn(CC(=O)NCc2ccccc2Cl)c(=O)c2cccn12 17.9%
CC(=O)Oc1ccc(C)cc1 9.83%
COc1ccc(-c2cc(OC(=O)c3ccc(F)cc3)c3c(C)oc(C)c3c(=O)c2)cc1OC -15.7%
Cc1ccc(Cc2c(C)nn(-c3nc(C)c(C(=O)N4CCCCC4C)s3)c2C)cc1 (stereo not given) -9.08%
COc1ccc(NC(=O)C2CCCN(S(=O)(=O)c3c(C)n[nH]c3C)C2)cc1OC (stereo not given) -27.9%
Cc1cccc(NC(=O)CN2c3ccccc3S(=O)(=O)c3ccccc32)c1C 0%
CCC(=O)N1CCc2cc(S(=O)(=O)NC(C(=O)NCCc3ccc(Cl)cc3)C(C)C)ccc21 (stereo not given) -1.08%
COc1ccc(NC(=O)C2CCCN(S(=O)(=O)c3ccc(Cl)cc3)C2)cc1 (stereo not given) -5.67%
Cc1ccc(C)c(N2CCN(c3nccn4nc(-c5ccc(Br)cc5)cc34)CC2)c1 -2.69%
Cc1ccc(Cl)cc1NC(=O)C(NS(=O)(=O)c1cccc2nsnc12)c1ccccc1 (stereo not given) -34.5%
O=C(COCc1cc(-c2cccs2)on1)NCc1ccccc1Cl -27.5%
COc1cc(C2c3c(oc4ccccc4c3=O)C(=O)N2c2nc(C)c(C)s2)ccc1O (stereo not given) -20.7% [at 11.5 µM]
Cc1nc2nc(NC(=O)c3ccc(F)cc3)[nH]n2c(=O)c1Cc1ccccc1 1.4%
Cc1c(C(=O)OC2CCCCC2)[nH]c2c1C(=O)CC(c1ccccc1Cl)C2 (stereo not given) -22.2%
O=C(NCc1ccccc1F)C1CCN(Cc2cc3ccccc3n2Cc2cccc(Cl)c2)CC1 -4.8%
Cn1c(=O)oc2cc(S(=O)(=O)CCC(=O)NCCc3ccccc3)ccc21 8.75%
CC(=O)c1cc(-c2ccc(F)cc2)n(CC(=O)NC(C)c2ccccc2)c1C (stereo not given) -11.9%
